From a collection of fitness landscapes (doi:10.1016/j.celrep.2020.107928)
The full ranking holds about 81,000 sequences; the median of “one-hybrid fitness for binding NBS DNA” is about -0.1, and the highest 2% start at about 0.36. Some of the results follow.

B1: Caulobacter ParB omega fusion; a variant is named by its letters at X, in order, B8GW30 (parent)
chain: MESVVVGEPGMSEGRRGLGRGLSALLGEVDAAPAQAPGEQLGGSREAPIEILQRNPDQPRRTFREEDLEDLSNSIREKGVLQPILVRPSPDTAGEYQIVAGERAWRAAQRAGLKTVPIMVRELDDLAVLEIGIIENVQRADLNVLEEALSYKVLMEKFERTQENIAQTIGKSXSHVANXMRLLXLPDEVQSYLVSGELTAXHARAIAAAADPVALAKQIIEGGLSVRETEALARKAPNLSAGKSKGGRPPRVKDTDTQALESDLSSVLGLDVSIDHRGSTGTLTITYATLEQLDDLCNRLTRGI

Variants of: B1
Experiment: one-hybrid fitness for binding NBS DNA (the Noc-binding site; scaled: cognate 1, non-cognate 0); higher = stronger binding
Conditions: with NBS DNA site
How it was run: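 Pre- and post-selection plasmids were Illumina-sequenced, three replicate libraries were pooled, and any variant with under 10 reads was removed. The libraries were Caulobacter ParB with four specificity codons randomised, selected in E. coli USO through a HIS3 reporter whose site is 19 bp from the promoter. Cells grew 48 hours at 37°C on M9 without histidine, with 0.1 mM IPTG and 5 mM 3-AT. Fitness is the log change in variant-to-wild-type read ratio, rescaled against cognate and non-cognate.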

| Variant | one-hybrid fitness for binding NBS DNA |
| --- | --- |
| MKLS | ≤ 0.2 |
| PLMV | ≤ 0.2 |
| AGRC | ≤ 0.2 |
| LWYF | ≤ 0.2 |
| RAKD | ≤ 0.2 |
| QFHC | ≤ 0.2 |
| MSND | ≤ 0.2 |
| VQGS | ≤ 0.2 |
| CVIR | ≤ 0.2 |
| VSFC | ≤ 0.2 |
| KWRE | ≤ 0.2 |
| WCIG | ≤ 0.2 |
| RYPL | ≤ 0.2 |
| VAMV | ≤ 0.2 |
| LVQT | ≤ 0.2 |
| RVFS | 0.34 |
| SASL | ≤ 0.2 |
| NNWC | ≤ 0.2 |
| FACK | ≤ 0.2 |
| LPNW | ≤ 0.2 |
| HVPK | ≤ 0.2 |
| IYKT | ≤ 0.2 |
| KHRS | 0.233 |
| WYSG | ≤ 0.2 |
| CSHT | ≤ 0.2 |

| Variant | one-hybrid fitness for binding NBS DNA |
| --- | --- |
| MDVS | ≤ 0.2 |
| DLSI | ≤ 0.2 |
| YWGT | ≤ 0.2 |
| ILER | ≤ 0.2 |
| TPYC | ≤ 0.2 |
| SIGA | ≤ 0.2 |
| VVHT | ≤ 0.2 |
| HWVS | ≤ 0.2 |
| LHHS | ≤ 0.2 |
| FLCG | ≤ 0.2 |
| ATME | ≤ 0.2 |
| TMKC | ≤ 0.2 |
| QRDM | ≤ 0.2 |
| LTWY | ≤ 0.2 |
| SSQP | ≤ 0.2 |
| TSSI | ≤ 0.2 |
| AEGC | ≤ 0.2 |
| LWRY | ≤ 0.2 |
| CYKG | ≤ 0.2 |
| NPQT | ≤ 0.2 |
| TRWS | ≤ 0.2 |
| SYEG | ≤ 0.2 |
| SIRS | ≤ 0.2 |
| CRTR | ≤ 0.2 |
| WTRY | ≤ 0.2 |

| Variant | one-hybrid fitness for binding NBS DNA |
| --- | --- |
| PRSM | ≤ 0.2 |
| YECT | ≤ 0.2 |
| RFGN | ≤ 0.2 |
| NPPL | ≤ 0.2 |
| SRIE | ≤ 0.2 |
| PYGY | ≤ 0.2 |
| HRAH | ≤ 0.2 |
| NYTA | ≤ 0.2 |
| SLMG | ≤ 0.2 |
| TICG | ≤ 0.2 |
| DVAC | ≤ 0.2 |
| YSKF | ≤ 0.2 |
| RRQS | 0.69 |
| QIMT | 0.219 |
| HCRT | ≤ 0.2 |
| DRNF | ≤ 0.2 |
| DWQG | ≤ 0.2 |
| YNNC | ≤ 0.2 |
| DTII | ≤ 0.2 |
| HNFS | ≤ 0.2 |
| SKQA | ≤ 0.2 |
| IGHS | ≤ 0.2 |
| PERS | ≤ 0.2 |
| WKAK | ≤ 0.2 |
| WTGR | ≤ 0.2 |

| Variant | one-hybrid fitness for binding NBS DNA |
| --- | --- |
| QCNN | 0.208 |
| IIAV | ≤ 0.2 |
| SAEW | ≤ 0.2 |
| PMLR | ≤ 0.2 |
| AFFM | ≤ 0.2 |
| KKHM | ≤ 0.2 |
| YVIS | ≤ 0.2 |
| ESQL | ≤ 0.2 |
| QMNL | ≤ 0.2 |
| HPYN | ≤ 0.2 |
| AMLY | ≤ 0.2 |
| KITF | ≤ 0.2 |
| SVLA | ≤ 0.2 |
| VKVM | ≤ 0.2 |
| EYEL | ≤ 0.2 |
| IPTR | ≤ 0.2 |
| SHSL | ≤ 0.2 |
| KYKH | ≤ 0.2 |
| YEPG | ≤ 0.2 |
| FSTC | ≤ 0.2 |
| SAHQ | ≤ 0.2 |
| EAVI | ≤ 0.2 |
| HTHS | ≤ 0.2 |
| RNCH | ≤ 0.2 |
| QLFL | ≤ 0.2 |

| Variant | one-hybrid fitness for binding NBS DNA |
| --- | --- |
| FFTS | ≤ 0.2 |
| ESCR | ≤ 0.2 |
| APVG | ≤ 0.2 |
| TVPR | ≤ 0.2 |
| PWMS | ≤ 0.2 |
| RKNH | 0.335 |
| RMWI | ≤ 0.2 |
| WCEG | ≤ 0.2 |
| SGSA | ≤ 0.2 |
| KVNR | ≤ 0.2 |
| WYPF | ≤ 0.2 |
| FCSW | ≤ 0.2 |
| AMLD | ≤ 0.2 |
| CSFF | ≤ 0.2 |
| LLLG | ≤ 0.2 |
| GIYC | ≤ 0.2 |
| VAMR | ≤ 0.2 |
| EEHV | ≤ 0.2 |
| QTMG | ≤ 0.2 |
| WMVC | ≤ 0.2 |
| LTYG | ≤ 0.2 |
| FIMG | ≤ 0.2 |
| PWWG | ≤ 0.2 |
| QWYA | ≤ 0.2 |
| RAFK | ≤ 0.2 |

| Variant | one-hybrid fitness for binding NBS DNA |
| --- | --- |
| LWWT | ≤ 0.2 |
| PAMS | ≤ 0.2 |
| PTPM | ≤ 0.2 |
| LQGT | ≤ 0.2 |
| ATMK | ≤ 0.2 |
| IYDT | ≤ 0.2 |
| RMMA | ≤ 0.2 |
| RPGG | ≤ 0.2 |
| RWAH | ≤ 0.2 |
| QSVS | 0.228 |
| RYCG | ≤ 0.2 |
| VRDA | ≤ 0.2 |
| TLTW | ≤ 0.2 |
| CLWC | ≤ 0.2 |
| MVTS | ≤ 0.2 |
| SQFT | ≤ 0.2 |
| HVTY | ≤ 0.2 |
| HQER | ≤ 0.2 |
| LNYT | ≤ 0.2 |
| VGYS | ≤ 0.2 |
| YYFR | ≤ 0.2 |
| LAKP | ≤ 0.2 |
| ASER | ≤ 0.2 |
| GMDC | ≤ 0.2 |
| LRNW | ≤ 0.2 |

| Variant | one-hybrid fitness for binding NBS DNA |
| --- | --- |
| LWFR | ≤ 0.2 |
| AHTP | ≤ 0.2 |
| GGKV | ≤ 0.2 |
| DHNK | ≤ 0.2 |
| LGAA | ≤ 0.2 |
| WPYC | ≤ 0.2 |
| IYIG | ≤ 0.2 |
| RQLT | 0.311 |
| EPMS | ≤ 0.2 |
| TQRY | ≤ 0.2 |
| GLST | ≤ 0.2 |
| GKNR | ≤ 0.2 |
| AGLA | ≤ 0.2 |
| ICGC | ≤ 0.2 |
| SAKR | ≤ 0.2 |
| KKRL | ≤ 0.2 |
| QSDF | ≤ 0.2 |
| LLED | ≤ 0.2 |
| EEWR | ≤ 0.2 |
| KNGP | ≤ 0.2 |
| LTNP | ≤ 0.2 |
| EGGM | ≤ 0.2 |
| ELER | ≤ 0.2 |
| VGVR | ≤ 0.2 |
| GTKT | ≤ 0.2 |

| Variant | one-hybrid fitness for binding NBS DNA |
| --- | --- |
| AICP | ≤ 0.2 |
| YCVM | ≤ 0.2 |
| AGHW | ≤ 0.2 |
| PAYQ | ≤ 0.2 |
| EYMS | ≤ 0.2 |
| QKKN | 0.42 |
| EMLS | ≤ 0.2 |
| MIFI | ≤ 0.2 |
| FAFG | ≤ 0.2 |
| GSYV | ≤ 0.2 |
| VKRR | 0.233 |
| KCAT | ≤ 0.2 |
| VHLS | ≤ 0.2 |
| SPFG | ≤ 0.2 |
| KRWA | 0.224 |
| RVDK | ≤ 0.2 |
| SGYT | ≤ 0.2 |
| NHYE | ≤ 0.2 |
| KERP | ≤ 0.2 |
| RCYF | ≤ 0.2 |
